# Experimental data taken from PubChem BioAssay (Tox21).
# “And” between values parts separate entries of the source, which are not always exact repeats. Equal values may be shown once. The source holds several records for some structures; these can differ, active in one and inactive in another. The source made the active and inactive calls. Calls come from the whole dose curve; as a rule, active = well fitted activation curve with a large enough effect in the signal ratio in the repeat runs (not every such curve was filed as active); inconclusive = weak or mixed curves, or effect the other way; inactive = no such curve, though single readings can be large or run the other way; the % refers to the signal ratio.
# Target: Glucocorticoid receptor (Homo sapiens) (UniProt P04150)
# Sequence of UniProt P04150 (P04150 whole entry, looked up): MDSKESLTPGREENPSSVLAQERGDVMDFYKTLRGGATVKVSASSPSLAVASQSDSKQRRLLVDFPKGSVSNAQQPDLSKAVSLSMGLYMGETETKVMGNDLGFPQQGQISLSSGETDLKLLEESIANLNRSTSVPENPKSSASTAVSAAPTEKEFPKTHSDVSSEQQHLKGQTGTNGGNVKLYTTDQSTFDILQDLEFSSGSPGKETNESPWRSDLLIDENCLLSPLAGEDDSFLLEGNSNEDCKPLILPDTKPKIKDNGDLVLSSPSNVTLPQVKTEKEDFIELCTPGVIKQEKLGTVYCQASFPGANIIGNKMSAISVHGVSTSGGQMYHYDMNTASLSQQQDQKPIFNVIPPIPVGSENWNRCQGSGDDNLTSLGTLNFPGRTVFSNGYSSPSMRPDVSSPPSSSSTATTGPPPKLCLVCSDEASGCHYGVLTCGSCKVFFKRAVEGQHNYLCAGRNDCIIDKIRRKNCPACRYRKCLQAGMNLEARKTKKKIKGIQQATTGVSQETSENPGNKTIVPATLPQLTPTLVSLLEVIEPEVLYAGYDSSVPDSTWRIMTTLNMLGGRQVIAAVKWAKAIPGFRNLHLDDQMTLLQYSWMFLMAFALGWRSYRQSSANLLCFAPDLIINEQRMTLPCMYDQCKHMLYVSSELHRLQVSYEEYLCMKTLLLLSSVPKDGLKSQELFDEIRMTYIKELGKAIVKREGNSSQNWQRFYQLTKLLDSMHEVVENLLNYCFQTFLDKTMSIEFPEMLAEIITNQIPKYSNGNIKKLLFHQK
# Assay: qHTS assay to identify small molecule agonists of the glucocorticoid receptor (GR) signaling pathway (AID 720691)
# Details: GR-bla HeLa, beta-lactamase reporter ratio, 18 h; activation: at 62.4 µM (top of the series) unless noted
# Description: U.S. Tox21 Program National Center for Advancing Translational Sciences [NCATS] NIH Chemical Genomics Center [NCGC] U.S. Environmental Protection Agency [EPA] National Institutes of Environmental Health Sciences [NIEHS] National Toxicology Program [NTP] U.S. Food and Drug Administration [FDA] Tox21 Assay Overview: The Glucocorticoid receptor (GR) is one of the members of the nuclear receptor family of ligand-dependent transcription factors. GR plays a critical role in carbohydrate, protein and lipid metabolisms and programmed cell death. CellSensor GR-bla HeLa cell line (Invitrogen) contains a beta-lactamase reporter gene under the control of the glucocorticoid response element stably integrated into HeLa cells, a cervical cancer cell line that expresses glucocorticoid receptor. The activation of the reporter gene under culture conditions can be detected by fluorescence intensity. This cell line has been used to screen the Tox21 10K compound library and to identify the compounds that activate the GR signaling.
# Tox21 Assay Protocol Summary: The GR-bla HeLa cells were dispensed at 1500 cells/6 ul/well in 1536-well black wall/clear bottom plates using a Multidrop Combi (ThermoFisher Scientific, Waltham, MA) dispenser. After the assay plates were incubated at a 37 C/5% CO2 incubator for 4 hours, 23 nL of compounds dissolved in DMSO, positive controls or DMSO only was transferred to the assay plate by a pintool station (Kalypsys, San Diego, CA). The plates were incubated at 37 C for 18 hours. After 1 uL of LiveBLAzerTM B/G FRET substrate was added using a Flying Reagent Dispenser (Aurora Discovery, San Diego, CA), the plates were incubated at room temperature for 2 hours, and fluorescence intensity was measured by an Envision plate reader (PerkinElmer, Shelton, CT).
# % is set by controls: 0 for no effect and ±100 for the full control effect; potency is the fitted concentration of half-maximal effect; tags give direction and shape of the fitted curve or compound fluorescence and quenching.
SMILES,activation,Potency
O=[N+]([O-])c1cc(Cl)c(Cl)c(Cl)c1Cl,inconclusive: 7.22% [phenotype inactive],–
COCC(=O)O[C@]1(CCN(C)CCCc2nc3ccccc3[nH]2)CCc2cc(F)ccc2[C@@H]1C(C)C,–,"inconclusive: 15.1 µM [cytotoxic, full curve]"
CCCCCCCCCCCC[N+](C)(C)Cc1ccccc1,–,"inconclusive: 15.1 µM [cytotoxic, partial curve] and inconclusive: 15.2 µM [cytotoxic, partial curve] and inconclusive: 18.9 µM [cytotoxic, full curve]"
O=C(N/N=C/c1ccccc1O)c1ccncc1,–,"inconclusive: 16.9 µM [rising, partial curve]"
c1ccc2c(c1)ccc1cc3c(ccc4ccccc43)cc12,–,inactive
CCCCCCCCCCCCCCCC[N+](C)(C)CC,–,"inconclusive: 15.1 µM [cytotoxic, partial curve] and inconclusive: 24.6 µM [cytotoxic, full curve]"
O=C(O)c1cc(N=Nc2ccc([N+](=O)[O-])cc2)ccc1O,–,"inconclusive: 3.82 µM [inhibitor, partial curve, poor fit]"
COc1cccc2c1C(=O)c1c(O)c3c(c(O)c1C2=O)C[C@@](O)(C(=O)CO)C[C@@H]3O[C@H]1C[C@H](N)[C@H](O)[C@H](C)O1,–,inconclusive: 7.56 µM [partial curve] and active: 535 nM [inconclusive] and active: 174 nM
O=C(c1ccccc1)c1cc(Cl)ccc1O,inactive: -0.329%,–
C[C@H](CCC(=O)O)[C@H]1CC[C@H]2[C@@H]3CC[C@@H]4C[C@H](O)CC[C@]4(C)[C@H]3C[C@H](O)[C@]12C,inconclusive: -7.75% [phenotype inactive] [at 79.2 µM],–
CCN(CC)C(=O)c1cc(S(=O)(=O)Cc2ccccc2)c(N2CCC(c3ccccc3)CC2)cc1N(CC)CCN(C)C,–,inconclusive: 26.8 µM [cytotoxic]
O=S(=O)(O)c1ccc(Nc2nc(Nc3ccc(/C=C/c4ccc(Nc5nc(Nc6ccc(S(=O)(=O)O)cc6)nc(N(CCO)CCO)n5)cc4S(=O)(=O)O)c(S(=O)(=O)O)c3)nc(N(CCO)CCO)n2)cc1,inconclusive: 24.2%,–
N=C1C=CC(=C(c2ccc(N)cc2)c2ccc(N)cc2)C=C1,–,"inconclusive: 43.6 µM [falling, partial curve]"
CC1(C)[C@H](C(=O)O)N2C(=O)C[C@H]2S1(=O)=O,–,"inconclusive: 0.301 µM [inhibitor, full curve]"
CCn1c2ccccc2c2cc([N+](=O)[O-])ccc21,inconclusive: 5.28%,–
O=C(O)c1ccccc1Nc1cccc(C(F)(F)F)c1,inconclusive: -11.4% and inconclusive: -9.55% [phenotype inactive],–
C=CC(=O)OCC(CO)(COC(=O)C=C)COC(=O)C=C,–,"inconclusive: 11 µM [cytotoxic, full curve] and inconclusive: 21.9 µM [cytotoxic, full curve]"
Nc1ccc2cc3ccc(N)cc3nc2c1,–,inconclusive: 4.77 µM and active: 6.16 µM
C[C@H](CCC(=O)O)[C@H]1CC[C@H]2[C@@H]3CC[C@@H]4C[C@H](O)CC[C@]4(C)[C@H]3CC[C@]12C,–,"inconclusive: 24.5 µM [rising, partial curve, poor fit]"

SMILES,activation,Potency
c1ccc2c(c1)c1cccc3ccc4cccc2c4c31,–,active: 48.6 µM
Cc1ccc(O)c(O)c1,–,"inconclusive: 59.9 µM [cytotoxic, single point]"
CCN(Cc1cccnc1)C(=O)c1cccc(Cl)c1[C@]1(C)C(=O)N(Cc2ccc(OC)cc2OC)c2ccc(Cl)cc21,–,"inconclusive: 14.5 µM [cytotoxic, full curve]"
CC(=O)OCC(=O)[C@@]1(O)[C@H](OC(C)=O)C[C@H]2[C@@H]3CCC4=CC(=O)C=C[C@]4(C)[C@@]3(F)[C@@H](O)C[C@@]21C,–,active: 0.134 µM [inconclusive]
Cc1cc(SC2=C(O)C[C@@](CCc3ccc(N)cc3)(C(C)C)OC2=O)c(C(C)(C)C)cc1CO,–,"inconclusive: 54.9 µM [rising, partial curve, poor fit]"
[Cl][Au]([Cl])[Cl],–,"inconclusive: 12.3 µM [cytotoxic, full curve]"
COc1cc(/C=C/C(=O)O[C@H]2CC[C@]34C[C@]35CC[C@]3(C)[C@@H]([C@H](C)CCC=C(C)C)CC[C@@]3(C)[C@@H]5CC[C@H]4C2(C)C)ccc1O,inconclusive: 11.4%,active: 1.51 µM [inconclusive]
c1ccsc1,–,"inconclusive: 5.26 µM [falling, partial curve, poor fit]"
Nc1nc(=S)c2[nH]cnc2[nH]1,inconclusive: -13.4% and inconclusive: -12.3% and inconclusive: -12.7%,"inconclusive: 10.7 µM [rising, single point]"
c1cc2ccc3ccc4ccc5cccc6c(c1)c2c3c4c56,–,active: 1.95 µM
CN(Cc1ccc(C(C)(C)C)cc1)Cc1cccc2ccccc12,–,"inconclusive: 10.7 µM [rising, single point]"
CC(C)NCC(O)COc1cccc2[nH]ccc12 (stereo not given),inactive: -0.507%,–
Cc1ccc(N=Nc2c(O)c(C(=O)O)cc3ccccc23)c(S(=O)(=O)O)c1,inconclusive: -8.45% [phenotype inactive],–
Brc1c2ccccc2c(Br)c2ccccc12,–,active: 0.882 µM
C=CCOCC(CC)(CO)COCC=C,inactive: -0.39%,–
CCCCCC/C=C\CCCCCCCC(=O)O,inconclusive: -1.17% [phenotype inactive],–
CCCCCCCC/C=C\CCCCCCCC(=O)N(C)CC(=O)O,–,"inconclusive: 24.5 µM [cytotoxic, full curve]"
CC1(C)O[C@H]2CC(=O)OC[C@]23[C@H]2CC[C@@]4(C)[C@H](c5ccoc5)OC(=O)[C@H]5O[C@]54[C@]2(C)C(=O)C[C@@H]13,–,active: 8.49 µM
CCCCc1nc2cccnc2n1Cc1ccc(-c2ccccc2-c2nnn[nH]2)cc1,–,"inconclusive: 43.6 µM [partial curve, poor fit]"
